Experimental data taken from PubChem BioAssay AID651820 (National Center for Advancing Translational Sciences (NCATS), 2012).
In all, about 340,000 compounds went through this assay and about 12,000 (3.5%) were called active. Inconclusive results, whose numbers are uncertain, are shown with a selection of clear calls. Calls come from the whole dose curve; as a rule, active = well fitted inhibition curve with a large enough effect; inconclusive = small, poorly fitted or top-dose-only effect, or another doubt; inactive = no such curve, though single readings can be large or run the other way. Potencies of inconclusive entries are left out as doubtful fits.

Test: qHTS Assay for Inhibitors of Hepatitis C Virus (HCV)
Settings: Huh7.5.1 HCVcc-Cre (HCVcc is cell-culture hepatitis C virus) infection, luciferase reporter, 44 h; series mostly up to 41.8 µM
Outline: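 1,000 cells/well; 4 h culture; + compound; + HCVcc-Cre (~0.5 moi); 44 h; luciferase substrate, RT 15 min; read 15 sec.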
Potency is the fitted concentration of half-maximal effect; tags give direction and shape of the fitted curve.

Compound	Potency
O=C(NCc1ccccn1)c1ccc(CS(=O)(=O)Cc2ccc(Cl)cc2)o1	inactive
COCCNc1oc(-c2ccc(Cl)cc2)nc1C#N	inconclusive [inhibitor, partial curve]
CCN(CC)S(=O)(=O)c1ccc(O)c(NC(=O)c2cc(-c3cc(OC)c(OC)c(OC)c3)nc3ccccc23)c1	inconclusive [inhibitor, partial curve]
Cc1ccc(OCCCCN2CCc3ccccc3C2)c(C)c1	inconclusive [inhibitor, single point]
FC(F)(F)c1ccc2c(c1)N(CCCN1CCN(CCCl)CC1)c1ccccc1S2	inconclusive [inhibitor, partial curve]
C[C@H]1CCC[C@]2(O[C@H](CCO)C[C@@H](O)[C@@H]2O)O1	inactive
COc1ccc(S(=O)(=O)N(CCCN2CCOCC2)Cc2cccc3ccccc23)cc1	inactive
Cc1noc(C)c1COC(=O)c1cc2ccccc2cc1O	inconclusive [inhibitor, single point]
COc1ccc(N(C(C)C(=O)Nc2ccc(S(=O)(=O)N3CCCCC3)cc2)S(C)(=O)=O)cc1 (stereo unspecified)	inconclusive [inhibitor, single point]
O=C(CSC(=S)N1CCOCC1)c1cc(Br)cc(Br)c1O	inconclusive [inhibitor, single point]
Clc1ccc(SCc2cc(N3CCOCC3)nc(-c3ccccn3)n2)cc1	active: 8.91 µM
NS(=O)(=O)c1ccc(CCNC(=O)CC(NC(=O)c2ccccc2Cl)c2ccccc2)cc1 (stereo unspecified)	inconclusive [inhibitor, single point]
Cc1c(NC(=O)C(C)OC(=O)c2c3c(nc4ccccc24)CCC(C)C3)c(=O)n(-c2ccccc2)n1C (stereo unspecified)	inconclusive [inhibitor, partial curve]
Cc1ccc(C(=O)CC2SC(N)=NC2=O)cc1 (stereo unspecified)	inactive
Cc1ccc(CN2C(=O)C(=O)c3cc(C)ccc32)cc1	inconclusive [inhibitor, single point]
C/C(=N\NC(=O)c1c(C)nc2ccccn12)c1ccc(O)cc1O	active: 6.31 µM
O=C(CON=C1c2ccccc2-c2ccccc21)NC12CC3CC(CC(C3)C1)C2	inconclusive [inhibitor, single point]
Cc1c(Br)c(C(=O)NNC(=O)c2ccc(C(C)(C)C)cc2)nn1C	inactive
Cc1cc(C(=O)Nc2cccc(C(=O)O)c2)c(C)o1	inactive
Cc1[nH]c(-c2ccc(F)cc2)cc1C(=O)N1CCN(c2ccccc2F)CC1	inconclusive [inhibitor, single point]
Cc1cc(S(=O)(=O)N2CCN(c3ccccc3C)CC2)ccc1F	inconclusive [inhibitor, single point]
CCOc1ccccc1NC(=O)CSc1nc2c(c(=O)n1C)SC(C)C2 (stereo unspecified)	inconclusive [inhibitor, single point]
CCSc1nnc(NC(=O)Nc2cccc(C)c2)s1	inactive

Compound	Potency
CCOC(=O)c1[nH]c2c(c1C)C(=O)CC(c1ccc(OCC)c(OC)c1)C2 (stereo unspecified)	inconclusive [inhibitor, full curve, poor fit]
CCN(Cc1ccc(C#CCCO)cc1)CC1CCCN(CCc2cccc(F)c2)C1 (stereo unspecified)	inconclusive [inhibitor, single point]
CCc1ccc2c(CN(C)Cc3ccc(OC(F)F)c(OC)c3)cc(=O)oc2c1	inconclusive [inhibitor, partial curve]
CCOc1ccc(N=Cc2ccccc2O)cc1	inactive
Cc1ccc(-n2nnnc2-c2cnc(N3CCCC3)nc2C(F)(F)F)cc1	active: 11.2 µM
COc1ccc(C=C2SC(=S)NC2=O)c(OC)c1OC	inconclusive [inhibitor, single point]
CC1(C)CC(=O)c2c(oc3ccc(NS(=O)(=O)c4cccc5cccnc45)cc23)C1	inconclusive [inhibitor, single point]
CN(CC(=O)O)c1ccc(S(=O)(=O)N2CCOCC2)cc1[N+](=O)[O-]	inactive
O=C(Nc1ccc(F)cc1)c1ccc2ncsc2c1	inactive
CC(=O)c1cccc(NC(=O)c2cc3nc(C)cc(C)n3n2)c1	inconclusive [inhibitor, partial curve]
Cn1c(=O)oc2cc(NC(=O)CCl)ccc21	inconclusive [inhibitor, single point]
Cc1csc(Cn2c(CN(C)C)nc3ccccc3c2=O)n1	inactive
C/C(=N\NC(=S)NC1CCCCC1)c1cccs1	inconclusive [inhibitor, partial curve]
COc1ccc(NC(NC(=O)c2ccc(OC)cc2)C(Cl)(Cl)Cl)cc1 (stereo unspecified)	inconclusive [inhibitor, partial curve]
CC1(C)Cc2c(ccc3ccccc23)C(c2cc3ccccc3oc2=O)=N1	inconclusive [inhibitor, partial curve]
CC(C)c1ccc2[nH]c(O)c(N=NC(=S)NCCc3ccccc3)c2c1	inconclusive [inhibitor, partial curve]
Cc1ccc(N/N=C/c2ccncc2)cc1	inconclusive [inhibitor, single point]
COC(=O)C1=C(c2ccc(-c3ccccc3)c(F)c2)C[C@@H]2CC[C@H]1N2C(=O)NC1Cc2ccccc2C1	inconclusive [inhibitor, full curve, poor fit]
O=C(CSCc1ccc(Cl)cc1)Nc1cc([N+](=O)[O-])ccc1O	active: 2.24 µM
O=C(Nc1ccc2nc3n(c(=O)c2c1)CCCC3)c1cc([N+](=O)[O-])ccc1F	inconclusive [inhibitor, single point]
O=C(/C=C/c1ccco1)OCn1nnc2ccccc2c1=O	inactive
Cc1cc(/C=N/NC(N)=S)c(C)n1-c1cccc(Cl)c1	inactive
CC1Cc2nc(SCC(=O)N3CCCc4ccccc43)n(C)c(=O)c2S1 (stereo unspecified)	active: 11.2 µM
